Measured values as given in article PMC5011643.
Results are given in words; binding and its absence hold for the method and conditions named. Binding seen in cells or lysates may run through a third protein. Some binding calls cover weakened binding; strength is not graded here.

The chains behind the UniProt entries cited, without tags or fusion partners. Where a name states a change or a piece, a line headed by the entry shows the natural chain unless it says otherwise.
UniProt Q15797: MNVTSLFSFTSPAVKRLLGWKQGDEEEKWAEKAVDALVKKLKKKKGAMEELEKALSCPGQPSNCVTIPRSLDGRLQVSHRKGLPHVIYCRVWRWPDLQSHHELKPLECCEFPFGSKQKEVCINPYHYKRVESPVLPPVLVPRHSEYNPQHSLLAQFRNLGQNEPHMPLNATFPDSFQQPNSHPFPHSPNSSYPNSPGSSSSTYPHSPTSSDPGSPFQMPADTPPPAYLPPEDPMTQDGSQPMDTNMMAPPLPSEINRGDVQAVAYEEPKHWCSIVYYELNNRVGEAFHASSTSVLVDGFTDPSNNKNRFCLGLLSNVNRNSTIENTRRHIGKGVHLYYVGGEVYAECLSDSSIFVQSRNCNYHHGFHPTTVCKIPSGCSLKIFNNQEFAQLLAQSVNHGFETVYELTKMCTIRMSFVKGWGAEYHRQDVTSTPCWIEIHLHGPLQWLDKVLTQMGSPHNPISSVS
UniProt Q9UJU2: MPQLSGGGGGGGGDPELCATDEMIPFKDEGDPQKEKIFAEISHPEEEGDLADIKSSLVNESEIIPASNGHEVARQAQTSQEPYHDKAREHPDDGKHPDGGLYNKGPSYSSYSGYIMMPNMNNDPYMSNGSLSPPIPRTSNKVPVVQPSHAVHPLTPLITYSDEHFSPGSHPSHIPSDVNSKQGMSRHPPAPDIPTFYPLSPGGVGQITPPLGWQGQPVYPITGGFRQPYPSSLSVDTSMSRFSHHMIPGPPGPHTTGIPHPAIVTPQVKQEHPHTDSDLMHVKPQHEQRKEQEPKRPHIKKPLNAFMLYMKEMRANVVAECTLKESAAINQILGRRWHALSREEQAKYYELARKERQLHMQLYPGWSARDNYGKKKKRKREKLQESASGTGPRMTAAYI
UniProt Q13485: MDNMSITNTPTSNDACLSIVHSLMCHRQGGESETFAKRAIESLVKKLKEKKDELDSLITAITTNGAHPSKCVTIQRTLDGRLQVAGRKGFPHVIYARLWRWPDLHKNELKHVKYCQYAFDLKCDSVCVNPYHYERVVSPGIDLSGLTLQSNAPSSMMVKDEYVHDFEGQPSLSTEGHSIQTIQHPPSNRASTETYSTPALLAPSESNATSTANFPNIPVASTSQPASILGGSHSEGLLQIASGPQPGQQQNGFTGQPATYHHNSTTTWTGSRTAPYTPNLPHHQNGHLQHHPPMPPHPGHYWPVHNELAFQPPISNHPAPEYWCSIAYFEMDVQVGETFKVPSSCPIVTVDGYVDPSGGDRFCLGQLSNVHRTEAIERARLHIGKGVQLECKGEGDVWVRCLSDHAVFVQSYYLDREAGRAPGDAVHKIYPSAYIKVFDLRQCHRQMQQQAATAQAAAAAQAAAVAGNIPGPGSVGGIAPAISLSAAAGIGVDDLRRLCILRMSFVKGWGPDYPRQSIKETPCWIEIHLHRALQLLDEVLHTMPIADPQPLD

Columns and labels:
[1] = biological target: phosphorylated Smad1 (human (endogenous in IMR32 and BE(2)-C)) (UniProt Q15797); test: co-IP; IMR32 and BE(2)-C cells transfected with Smad4, D351H or R361H; western blot for p-Smad1 and p-Smad2
[2] = biological target: lymphoid enhancer binding factor 1 (LEF1), endogenous (human (endogenous in NB cell lines)) (UniProt Q9UJU2); test: co-IP; endogenous proteins of cultured NB cells; antibodies specific for Smad4 and LEF1, protein A-Sepharose beads, western blot

binding [1]	binding [2]	Substance
binds	–	Smad4, transfected (from UniProt Q13485 1-552)
no binding	–	Smad4 D351H (from UniProt Q13485 1-552)
–	binds	SMAD family member 4 (Smad4), endogenous (from UniProt Q13485 1-552)
no binding	–	Smad4 R361H (from UniProt Q13485 1-552)
